Measured values from publication PMC4336329 (PLoS ONE, 2015).
The campaign covered roughly 310,000 compounds. About 14,000 (4.5%) showed an effect of 50% or more. The effect is printed as a negative number. This is one part of the list.

Molecular target: human ether-à-go-go-related gene (hERG) potassium channel (human, UniProt Q12809)
Experiment: primary screen, population patch clamp on CHO cells stably expressing hERG
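Further: peak tail current of the secondary pulse compared with the same well before compound.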

Sequence of human ether-à-go-go-related gene (hERG) potassium channel (Q12809 whole entry, looked up): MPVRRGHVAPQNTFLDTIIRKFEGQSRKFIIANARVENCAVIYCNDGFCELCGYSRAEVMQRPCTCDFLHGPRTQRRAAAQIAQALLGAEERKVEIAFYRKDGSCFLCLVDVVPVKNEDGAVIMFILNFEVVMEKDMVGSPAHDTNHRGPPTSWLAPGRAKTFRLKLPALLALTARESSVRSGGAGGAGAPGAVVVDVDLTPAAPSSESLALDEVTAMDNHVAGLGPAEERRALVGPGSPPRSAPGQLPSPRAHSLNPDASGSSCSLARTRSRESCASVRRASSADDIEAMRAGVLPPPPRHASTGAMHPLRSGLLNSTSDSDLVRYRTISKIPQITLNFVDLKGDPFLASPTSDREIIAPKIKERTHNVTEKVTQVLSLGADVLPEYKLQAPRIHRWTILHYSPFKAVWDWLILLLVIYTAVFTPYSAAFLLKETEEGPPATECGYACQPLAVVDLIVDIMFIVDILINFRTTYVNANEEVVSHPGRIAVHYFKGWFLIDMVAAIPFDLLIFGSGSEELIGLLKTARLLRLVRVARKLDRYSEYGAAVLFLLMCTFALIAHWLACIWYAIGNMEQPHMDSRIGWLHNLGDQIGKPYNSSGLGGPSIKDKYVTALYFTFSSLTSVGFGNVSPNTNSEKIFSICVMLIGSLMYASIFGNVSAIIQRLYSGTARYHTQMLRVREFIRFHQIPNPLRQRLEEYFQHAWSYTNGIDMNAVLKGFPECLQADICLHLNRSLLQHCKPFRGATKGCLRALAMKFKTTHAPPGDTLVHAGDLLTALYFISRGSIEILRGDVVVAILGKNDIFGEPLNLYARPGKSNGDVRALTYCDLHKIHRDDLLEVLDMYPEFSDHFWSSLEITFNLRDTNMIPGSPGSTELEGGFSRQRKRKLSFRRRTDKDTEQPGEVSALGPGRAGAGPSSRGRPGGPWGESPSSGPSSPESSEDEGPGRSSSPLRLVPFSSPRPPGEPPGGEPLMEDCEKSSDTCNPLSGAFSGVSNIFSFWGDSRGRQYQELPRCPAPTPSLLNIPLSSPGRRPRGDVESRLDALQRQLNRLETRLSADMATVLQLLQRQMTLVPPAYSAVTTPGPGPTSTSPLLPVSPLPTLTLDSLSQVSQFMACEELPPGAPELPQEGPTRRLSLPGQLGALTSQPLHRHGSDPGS

Row | SMILES | hERG current change (%, negative = inhibition) at 10uM
1 | O=C1c2ccccc2C(=O)N1CCOc1ccc(F)cc1 | 4.45%
2 | Cc1ccc2nc(-c3ccccc3)cc(C(=O)Nc3cccnc3)c2c1 | 2.22%
3 | COc1cc(C(=O)N(C)C2CCCCC2)ccc1OC1CCN(C(C)=O)CC1 | 9.42%
4 | Cc1cc(C)c(S(=O)(=O)N2CCN(S(=O)(=O)N3CCC(C)CC3)CC2)c(C)c1 | 20.8%
5 | COc1cc(/C=N/NC(=O)COc2ccc(-n3cnnn3)cc2)ccc1OCC(N)=O | 17.3%
6 | Cc1ccc(C(=O)COc2cc(O)c3c(=O)cc(-c4ccccc4)oc3c2)cc1 | 24.6%
7 | CCN(CC)CC(=O)N1N=C(c2cccs2)CC1c1ccco1 (stereo not drawn) | -39%
8 | Cc1nc2ccccc2n1/N=C/c1ccc([N+](=O)[O-])s1 | -12.3%
9 | CCOc1cc(/C=N/NC(=O)CCc2n[nH]c(=O)[nH]c2=O)ccc1O | 8.56%
10 | COc1ccc(C2CC(=O)C(C=NCC(C)C)=C(O)C2)cc1 (stereo not drawn) | 6.87%
11 | CC(C)NC(=O)c1c2c(nc3ccccc13)CCCC2 | -2.93%
12 | COc1ccccc1NC(=S)N1CCCC1 | 2.06%
13 | Nc1nc2ccc(S(=O)(=O)c3ccc4nc(N)sc4c3)cc2s1 | -8.96%
14 | COc1ccc(OCC(=O)Nc2ccc(S(=O)(=O)Nc3nc(C)cc(C)n3)cc2)cc1 | -0.43%
15 | O=C(NNC(=O)c1cccs1)c1ccc2ccccc2c1 | 3.81%
16 | CCCCCCOc1ccc(C(=O)NCCCn2ccnc2)cc1 | -41.7%
17 | O=C(CN(C(=O)CCC(=O)Nc1nccs1)c1cccc(F)c1)NCc1ccccc1 | 14.7%
18 | CCCC(=O)C1=C(O)C(C(=O)OC)C(C)(C)CC1=Nc1ccncc1 (stereo not drawn) | -12.6%
19 | C=CC[n+]1cccc(-c2cc3ccc(C)cc3[nH]2)c1.[Br-] | -16.2%
20 | CC(=O)Nc1ccc(/C=C/c2ccc3c([N+](=O)[O-])cccc3n2)cc1 | 6.68%
21 | O=C(CC1C(=O)N(Cc2ccccc2)C(=S)N1CCN1CCOCC1)Nc1ccc(F)cc1 (stereo not drawn) | -5.1%
22 | O=C(NCc1ccccc1)C1CCCN1S(=O)(=O)c1cccc2cccnc12 (stereo not drawn) | -11%
23 | COc1ccc(-c2nc3oc4cc(OC)ccc4c(=O)c3c(=O)n2Cc2ccco2)cc1 | -27.5%

Row | SMILES | hERG current change (%, negative = inhibition) at 10uM
24 | COc1ccc(NC(=O)Nc2ccc(C(=O)N3CCOCC3)cc2)c(OC)c1 | 2.56%
25 | O=C(c1cc(-c2cccs2)nc2ccccc12)N1CCN(c2ccccc2O)CC1 | 25.8%
26 | CCn1c(NN)nc2sc3c(c2c1=O)CCC3 | 17.5%
27 | CCOC(=O)CSc1nc(COc2ccccc2)nc2ccccc12 | 2.22%
28 | Cc1noc(C)c1S(=O)(=O)N1CCCC1C(=O)NC(C)(C)C (stereo not drawn) | 15.3%
29 | CC1=C(C(=O)NC2CCCC(C)C2C)C2(CCCCC2)OC1=O (stereo not drawn) | -1.75%
30 | COc1ccccc1-c1sc2ccccc2c1-c1ccccc1OC | 14.4%
31 | CCCCCC(=O)N/N=C(\C)c1ccc(N2CCCCC2)cc1 | 7.01%
32 | Cc1cccc(C(=O)n2c(=S)nc3ccccn32)c1 | 4.13%
33 | O=c1oc2ccc(Cl)cc2cc1-c1ccccc1 | 22.4%
34 | O=C(COC(=O)c1ccccc1NS(=O)(=O)c1ccc(Cl)cc1)NCc1ccccc1 | 6.15%
35 | CCOC(=O)N1CCC(NC(=O)C2CCN(S(=O)(=O)c3ccc4c(c3)oc(=O)n4C)CC2)CC1 | 9.17%
36 | COc1ccc(CCNC(=O)C(=O)NCc2ccc(C)cc2)cc1OC | -1.57%
37 | Nc1nnn(CC(=O)N/N=C/C=C/c2ccccc2)n1 | 10%
38 | NS(=O)(=O)OCCCc1ccccc1 | 8.49%
39 | CC(C)C(=O)N1CCC2(CC1)Oc1ccc(F)cc1C(=O)C21CC(c2ccc(Cl)cc2)=NO1 (stereo not drawn) | -31.2%
40 | CN(C)c1ccc(Nc2ccc([N+](=O)[O-])cn2)cc1 | 21.5%
41 | Cc1ccc(C(=O)c2c3ccccc3[n+]([O-])n2CCC(N)=O)cc1 | -5.98%
42 | O=C(NCCc1ccco1)c1nn(Cc2ccccc2)c(=O)c2ccccc12 | 10.3%
43 | O=C(Nc1ccccc1)Nc1ccno1 | 25.4%
44 | CCCN(CCC)CCCNC(=O)c1cn(C)c2ccc(S(=O)(=O)N(C)C3CCCCC3)cc2c1=O | -73.7%
45 | O=C(Nc1ccc(C(=O)N2CCOCC2)cc1)Nc1cccc(Cl)c1 | -10.1%
